Test results: PubChem BioAssay AID1347120 (National Center for Advancing Translational Sciences (NCATS), 2019)
Hit rate of the full screen: of about 390,000 compounds, about 930 (0.24%) were called active. The shares of active, inactive and inconclusive entries below differ from those in the screen. The call rests on the fitted dose curve; in most records, active means well fitted activation curve with a large enough effect; inconclusive means small, poorly fitted or top-dose-only effect; inactive means no such curve, though single readings can be large or run the other way. Where the call is inconclusive, the potency comes from a doubtful curve fit.
Potency means the concentration at half of the fitted maximal effect; tags describe the fitted curve by direction and shape.

Assay: qHTS for Suppressors of FUS Proteinopathy: Primary screen using FUS-linked yeast assay; further: nearly all actives have a fitted effect of over 55% in size;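 on growth rescue (activation): plate controls were DMSO vehicle for no effect and reference control for full effect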
Details: S. cerevisiae FUS-expressing, OD600, 24 h; Potency: growth rescue; growth rescue (activation): at 76.6 µM (top of the series)
Method in brief: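 Compound concentration series was pinned onto galactose-induced FUS-expressing yeast seeded at OD 0.005. Plates sat 24hr at 30C; absorbance at 600 nm gave growth. DMSO served as background control.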
With `O=C(NCc1ccc(F)cc1)C1C2C=CC3(CN(Cc4cccnc4)C(=O)C13)O2` (stereo not given) the Potency was inconclusive: 0.794 µM [activator, partial curve, poor fit]. With `CCOC(=O)[C@]12CCC=C1N(Cc1cccc3ccccc13)C(=O)[C@H](CC(=O)NCc1ccccc1)C2` the Potency was inconclusive: 12.6 µM [activator, partial curve, poor fit]. With `C[C@@H](C[C@@H](O)[C@H](O)C(C)(C)O)[C@@H]1CC[C@]2(C)C3=CC[C@H]4C(C)(C)C(=O)CC[C@]4(C)[C@H]3CC[C@@]12C` the Potency was inconclusive: 22.4 µM [activator, single point]. In the case of `CCCCOCCCNC(=O)C[C@@H]1C[C@@]2(C(=O)OCC)CCCC=C2N(Cc2ccc(Cl)cc2Cl)C1=O`, the Potency is reported as inconclusive: 28.2 µM [activator, single point]. For `Cc1ccc(CC2(C)C(=O)Nc3ccc(OC(F)(F)F)cc32)cc1` (stereo not given), the Potency was inconclusive: 31.6 µM [activator, single point]. With `COc1ccc(C(=O)O/N=C2\C(=O)N(C)c3ccccc32)cc1` the “growth rescue (activation)” value was inactive: -18%. For `COc1ccc(CN2CCCCC2C(=O)Nc2ccc(OC)c(OCC(C)C)c2)cc1OC` (stereo not given), the Potency was inconclusive: 35.5 µM [activator, single point]. In the case of `CN(C(=O)COC(=O)c1c2c(nc3ccccc13)/C(=C/c1cccc([N+](=O)[O-])c1)CCC2)C1CCS(=O)(=O)C1` (stereo not given), the Potency is reported as inconclusive: 15.8 µM [activator, partial curve]. For `Cc1cccc(N2CCN(C(=O)c3cc(S(=O)(=O)N4CCCC4)cn3C)CC2)c1C`, the Potency was inconclusive: 35.5 µM [activator, single point]. For `COCCCN(C(C)=O)c1nc(-c2ccc(OC)cc2)cs1`, the “growth rescue (activation)” value was inactive: 26.4%. With `CCCCn1c(N)c(N(CC(C)C)C(=O)CSCc2cccc(C)c2)c(=O)[nH]c1=O` the Potency was inconclusive: 31.6 µM [activator, partial curve, poor fit]. For `O=C(Cc1ccccc1)Nc1cc(C(=O)c2ccccc2)ccc1N1CCOCC1`, the “growth rescue (activation)” value was inactive: 7.7%. For `CCC(C)[C@H](NC(=O)N1CCC(C)CC1)C(=O)O` (stereo not given in full), the “growth rescue (activation)” value was inactive: 30.7%. In the case of `COc1ccc(C(=O)N2CCN(c3nc(C4CC4)nc4sc(C)c(C)c34)CC2)cc1`, the Potency is reported as inconclusive: 20 µM [activator, partial curve, poor fit]. In the case of `COCCn1c(C)cc(C2=NNC(=Nc3ccc(Cl)cc3Cl)SC2)c1C`, the Potency is reported as inconclusive: 8.91 µM [activator, full curve, poor fit]. With `O=C1C=C(c2ccc3ccccc3c2)C[C@@H](c2ccc(Cl)cc2)C1` the “growth rescue (activation)” value was inactive: 7.02%. In the case of `O=C(c1ccc(Cl)c(S(=O)(=O)N2CCOCC2)c1)N1CCN(c2ccccc2)CC1`, the “growth rescue (activation)” value is reported as inactive: 7.87%. With `O=C(Nc1ccc(F)c(Cl)c1)C1CCN(S(=O)(=O)c2ccc3[nH]c(=O)ccc3c2)CC1` the “growth rescue (activation)” value was inactive: -14.4%. In the case of `CCOC(=O)c1cc2c(=O)n3cccc(C)c3nc2n(Cc2ccco2)c1=NC(=O)c1cccnc1`, the Potency is reported as inconclusive: 39.8 µM [activator, single point]. With `COc1ccc(-n2nc3c(c2NC(=O)c2ccccc2S(=O)(=O)C(F)F)CS(=O)(=O)C3)cc1` the “growth rescue (activation)” value was inactive: 11.6%. For `COc1ccc(-c2cc3nc(-c4ccccc4)cc(N4CCN(C(=O)c5ccoc5)CC4)n3n2)cc1`, the Potency was inconclusive: 22.4 µM [activator, single point]. In the case of `Cc1ccc(C(=O)Nc2nc3n(n2)C(c2ccc(F)cc2)C=C(c2ccccc2)N3)cc1` (stereo not given), the Potency is reported as inconclusive: 50.1 µM [activator, single point]. With `O=C(Cn1cc(C(=O)c2ccncc2)c(=O)c2cc(F)ccc21)Nc1ccc(Cl)cc1` the “growth rescue (activation)” value was inactive: 19.4%. With `COc1cccc(N2C(=O)CC(NNc3nc4ccccc4s3)C2=O)c1` (stereo not given) the Potency was inconclusive: 35.5 µM [activator, single point]. With `COc1cccc(-c2cc(C(=O)Nc3cc(OC)c(OC)c(OC)c3)no2)c1` the Potency was inconclusive: 25.1 µM [activator, single point]. With `CCN1C(=O)[C@H]2[C@@H](c3ccc(C)cc3)N3C(=O)N(c4cccc(Cl)c4)C(=O)[C@@]3(CC(C)C)[C@H]2C1=O` the Potency was inconclusive: 35.5 µM [activator, single point]. With `O=C1C=C(c2cc(F)ccc2F)C[C@@H](c2ccc(Cl)cc2)C1` the “growth rescue (activation)” value was inactive: 8.03%. With `Cc1ccc2nc(-c3ccc(F)cc3)c(Cc3ccccc3C(F)(F)F)n2c1` the “growth rescue (activation)” value was inactive: 31%. In the case of `CCCCCOc1ccc(C(=O)NCC2(c3ccccc3)CCOCC2)cc1`, the Potency is reported as inconclusive: 25.1 µM [activator, partial curve, poor fit]. For `COC(=O)C1CCN(c2ccc([N+](=O)[O-])cc2)CC1`, the “growth rescue (activation)” value was inactive: -26.7%. In the case of `COC(=O)c1ccc(S(=O)(=O)N2CCC(NC(=O)CCc3ccccc3)CC2)cc1`, the “growth rescue (activation)” value is reported as inactive: 2.72%. In the case of `COC(=O)c1cccc(Cn2ccc3ccc(-c4ccc5ccn(C(=O)C6CCC6)c5c4)cc32)c1`, the “growth rescue (activation)” value is reported as inactive: 33.2%. With `CC(=O)N/C(=C/c1ccc(OS(=O)(=O)c2ccc(C)cc2)cc1)C(=O)Nc1ccc(C(=O)O)cc1` the Potency was inconclusive: 39.8 µM [activator, partial curve, poor fit]. For `Cc1ccc(-c2csc3ncn(-n4c(C)ccc4C)c(=O)c23)o1`, the Potency was inconclusive: 5.62 µM [activator, full curve, poor fit]. With `C[C@H]1O[C@@H](O[C@H]2CC[C@@]3(C)C(CC[C@]4(C)C3C=CC3=C5CC(C)(C)CC[C@]5(CO)[C@H](O)C[C@]34C)[C@]2(C)CO)[C@H](O)[C@@H](O[C@@H]2O[C@H](CO)[C@@H](O)[C@H](O)[C@H]2O)[C@H]1O` (stereo not given in full) the Potency was inconclusive: 25.1 µM [activator, single point]. In the case of `CCO[C@H]1OC(C(=O)NCc2ccccc2)=C[C@@H](c2ccc(Br)cc2)[C@@H]1CCCO`, the Potency is reported as inconclusive: 14.1 µM [activator, partial curve, poor fit]. With `Cc1oc(-c2ccc(Cl)cc2)nc1CS(=O)CC(=O)N1CCN(c2cccc(C(F)(F)F)c2)CC1` (stereo not given) the “growth rescue (activation)” value was inactive: 34.2%. With `COc1cccc(N2CCN(c3ncnc4c3nc3n4CCCCC3)CC2)c1` the Potency was inconclusive: 15.8 µM [activator, partial curve, poor fit]. For `CCCCN(CC)C(=O)CSc1nc2n[nH]c(C)c2c(=N)n1-c1cccc(OC)c1`, the Potency was inconclusive: 25.1 µM [activator, partial curve, poor fit]. For `Cc1cc(NC(=S)NC(=O)/C=C/c2ccc(S(=O)(=O)N3CCOCC3)cc2)ccc1Br`, the Potency was inconclusive: 31.6 µM [activator, partial curve, poor fit]. With `COc1cc(/C=N/Nc2nc(Nc3ccccc3)nc(-n3nc(C)cc3C)n2)cc(OC)c1OC` the Potency was inconclusive: 20 µM [activator, partial curve]. With `CCC(=O)N1c2ccccc2-c2nnc(SC)nc2OC1c1ccc(OC)c(OC)c1` (stereo not given) the Potency was inconclusive: 28.2 µM [activator, partial curve, poor fit]. With `O=S(=O)(Nc1nc(SCc2ccc(Cl)cc2)n[nH]1)c1ccc(F)cc1` the “growth rescue (activation)” value was inactive: -17.2%. In the case of `Cc1ccccc1OCCC(=O)N(Cc1ccccc1)c1c(N)n(Cc2ccccc2)c(=O)[nH]c1=O`, the Potency is reported as inconclusive: 8.91 µM [activator, full curve]. In the case of `CCc1c(CN2CCN(c3cccc(C)c3C)CC2)csc1C`, the “growth rescue (activation)” value is reported as inactive: -18.3%. In the case of `CCC(CO)Oc1cc(NC(=O)Cc2ccccc2F)c2ncn(C(C)C)c2c1` (stereo not given), the “growth rescue (activation)” value is reported as inactive: -9.54%. In the case of `O=C(C1=C[C@H](c2ccc(Br)cc2)C[C@H](OCc2ccc(CO)cc2)O1)N1CCN(Cc2ccc3c(c2)OCO3)CC1`, the “growth rescue (activation)” value is reported as inactive: 40.8%. With `O=C(C1COc2ccccc2O1)N1CCN(c2nc3ccc(F)cc3s2)CC1` (stereo not given) the Potency was inconclusive: 17.8 µM [activator, single point]. In the case of `CN(C)c1ccc(-c2ccnc3c2CC(C)(C(=O)Nc2cccc(OC(F)(F)F)c2)O3)cc1` (stereo not given), the “growth rescue (activation)” value is reported as inactive: 30.6%. In the case of `CC1(C(=O)NS(=O)(=O)Cc2cccc(Cl)c2)CCN1C(=O)c1ccc(C2CCCCC2)cc1` (stereo not given), the “growth rescue (activation)” value is reported as inactive: 5.06%. With `NC(=O)c1nsc(C(=O)N(CC(=O)NC2CCCCC2)c2ccc(Cl)cc2)c1N` the Potency was inconclusive: 35.5 µM [activator, single point]. With `COc1ccc2c(c1)CCc1c(C(=O)Nc3c(C)nn(Cc4ccccc4C)c3C)noc1-2` the Potency was inconclusive: 15.8 µM [activator, partial curve]. With `COc1ccc(C(C(=O)N(C)C2CCCC2)N(Cc2ccc(F)cc2)C(=O)c2csc(-c3ccccc3)n2)cc1OC` (stereo not given) the Potency was inconclusive: 15.8 µM [activator, partial curve]. For `COc1ccc(C(=O)CCNc2ccc(F)cc2)cc1`, the “growth rescue (activation)” value was inactive: -2.48%. For `COc1cc(CNC(=O)c2ccc3nc(CCc4ccccc4)oc3c2)cc(OC)c1OC`, the Potency was inconclusive: 14.1 µM [activator, partial curve, poor fit]. With `COc1ccc(-c2csc(/C(C#N)=C(\O)CSc3nccn3C)n2)cc1OC` the Potency was inconclusive: 39.8 µM [activator, partial curve, poor fit]. For `CCC(C)(C)c1ccc(OCC(=O)N(C)C)c(C(C)(C)CC)c1`, the Potency was inconclusive: 22.4 µM [activator, single point]. With `C[C@H](CO)N1C[C@H](C)[C@@H](CN(C)S(=O)(=O)c2cccs2)Oc2ccc(NC(=O)Cc3ccccc3)cc2C1=O` the Potency was inconclusive: 15.8 µM [activator, partial curve, poor fit]. In the case of `COc1ccc(NC(=O)c2cc(S(=O)(=O)N3CCOCC3)ccc2C)cc1S(=O)(=O)N1CCCCC1`, the Potency is reported as inconclusive: 31.6 µM [activator, single point]. With `CCn1c2ccccc2c2c3ncc4cccn4c3ccc21` the Potency was inconclusive: 11.2 µM [activator, single point]. For `COc1ccc(C2C(C#N)=C(N)N(c3cccnc3)C3=C2C(=O)CCC3)cc1Cn1cc([N+](=O)[O-])cn1` (stereo not given), the Potency was inconclusive: 25.1 µM [activator, single point]. In the case of `Cc1ccc(S(=O)(=O)OCCC2=CC(=O)CCN2Cc2ccccc2)cc1`, the Potency is reported as inconclusive: 35.5 µM [activator, single point]. With `CCC(C)c1ccccc1N1CC(C(=O)Nc2cc(S(=O)(=O)N3CCOCC3)ccc2OC)CC1=O` (stereo not given) the Potency was inconclusive: 35.5 µM [activator, partial curve, poor fit]. With `COc1ccc(/C=N/NC(=O)c2ccc(NC(C)=O)cc2)cc1COc1ccc(F)cc1F` the Potency was active: 25.1 µM. With `C[C@]12c3[nH]c4ccc(Cl)cc4c3CCN1C(=O)[C@@H](CC(=O)NCC13CC4CC(CC(C4)C1)C3)C[C@@H]2C(=O)N1CCOCC1` the Potency was inconclusive: 35.5 µM [activator, single point]. With `O=C(Nc1ccc(N2CCOCC2)cc1)C1CCCCC1` the Potency was inconclusive: 2.24 µM [activator, full curve]. In the case of `CCOC(=O)c1oc2ccc(S(=O)(=O)n3nc(-c4cc(OC)c(OC)c(OC)c4)cc3N)cc2c1C`, the Potency is reported as inconclusive: 31.6 µM [activator, single point]. With `COc1ccccc1N1CCN(C(=O)NCc2ccc(Cl)cc2)CC1` the “growth rescue (activation)” value was inactive: 13.4%. For `CCS(=O)(=O)N1Cc2ccccc2CC1C(=O)NC(C)C12CC3CC(CC(C3)C1)C2` (stereo not given), the Potency was inconclusive: 20 µM [activator, partial curve, poor fit]. With `CCCSc1nnc(N2C(=O)C(O)=C(C(=O)c3ccco3)C2c2ccccc2F)s1` (stereo not given) the Potency was inconclusive: 28.2 µM [activator, partial curve, poor fit]. For `COc1ccc2c(c1)[C@H]1[C@H](CO2)[C@H](c2ccccc2)[C@]2(C)C(=O)N[C@H](C)C(=O)N12`, the “growth rescue (activation)” value was inactive: 4.96%. With `CCN(CC(=O)Nc1cc(S(=O)(=O)N2CCOCC2)ccc1Cl)Cc1ccccc1` the “growth rescue (activation)” value was inactive: -8.47%. For `c1ccc(CCc2nn3c(Cn4cnc5ccccc54)nnc3s2)cc1`, the “growth rescue (activation)” value was inactive: 24.9%. With `COc1ccccc1CCNC(=O)C1CCN(c2nnc(-n3cccc3CNc3ccc(C)cc3)s2)CC1` the Potency was inconclusive: 31.6 µM [activator, single point]. In the case of `Cc1c(C(=O)N(Cc2ccc(N(C)C)cc2)CC2CCCO2)oc2ccc(Cl)cc12` (stereo not given), the “growth rescue (activation)” value is reported as inactive: -2.54%.
